These results are taken from the supplement of paper PMC12645437, “Orthogonal IMiD-Degron Pairs Induce Selective Protein Degradation in Cells” (ACS Chemical Biology, 2025).

This is one part of the list.
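Note: jurkat cells carrying a lentiviral library of mutant zinc finger degrons fused to EGFP plus mCherry, mCherry+ cells FACS sorted, degron abundance counted by next-generation sequencing.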

The target of this assay is no compound (DMSO). The experiment in a line: log2 fold change of degron read counts, EGFP-low vs EGFP+ sorted cells; higher = lower degron-EGFP level without compound (poor expression or instability). Conditions: compound: DMSO control; 18 h.
In the case of FGCNQCGHVFTQKGNLLRHIKL, the “log2 fold change of degron read counts” value was determined as 0.978.

As for FGCDQCGALFTQKGNLLRHIKL, the “log2 fold change of degron read counts” value is -0.319.

In the case of FWCDICGAKFTQKGNLLRHIKL, the “log2 fold change of degron read counts” value was -0.874.

On to FCCPVCGAIFTQKGNLLRHIKL, for which the “log2 fold change of degron read counts” value was determined as 0.742.

In the case of FFCEQCGAVFTQKGNLLRHIKL, the “log2 fold change of degron read counts” value was -0.643.

On to FGCEVCGAPFTQKGNLLRHIKL, for which the “log2 fold change of degron read counts” value was -0.903.

As for FTCPQCGAWFTQKGNLLRHIKL, the “log2 fold change of degron read counts” value turned out to be 0.0137.

Turning to LSCPICGFGCTQKGNLLRHIKL, the “log2 fold change of degron read counts” value is 0.75.

For FKCPICGRMFTQKGNLLRHIKL, the “log2 fold change of degron read counts” value was -0.374.

Consider LDCEICGFSCTQKGNLLRHIKL, for which the “log2 fold change of degron read counts” value is -0.355.

In the case of FKCNQCGACFTQKGNLLRHIKL, the “log2 fold change of degron read counts” value was -0.797.

On to FTCNQCGANFTQKGNLLRHIKL, for which the “log2 fold change of degron read counts” value was -1.17.

On to FGCDVCGAPFTQKGNLLRHIKL, for which the “log2 fold change of degron read counts” value was -0.577.

In the case of FTCNQCGACFTQKGNLLRHIKL, the “log2 fold change of degron read counts” value is -1.33.

As for FICDVCGAEFTQKGNLLRHIKL, the “log2 fold change of degron read counts” value was -1.4.

As to FTCEICGHQFTQKGNLLRHIKL, the “log2 fold change of degron read counts” value is -2.22.

LACPICGFHCTQKGNLLRHIKL: the “log2 fold change of degron read counts” value was found to be 0.791.

With FFCPVCGAQFTQKGNLLRHIKL, the “log2 fold change of degron read counts” value was -0.0638.

Consider FQCEICGAGFTQKGNLLRHIKL, for which the “log2 fold change of degron read counts” value is -1.87.

On to FRCNQCGARFTQKGNLLRHIKL, for which the “log2 fold change of degron read counts” value is -0.00986.

As for FRCPICGHNFTQKGNLLRHIKL, the “log2 fold change of degron read counts” value was -0.554.

FKCEICGALFTQKGNLLRHIKL: the “log2 fold change of degron read counts” value was -1.19.

As to FDCNQCGRYFTQKGNLLRHIKL, the “log2 fold change of degron read counts” value is 1.37.

On to FICEICGRCFTQKGNLLRHIKL, for which the “log2 fold change of degron read counts” value was -1.63.

Take FACSVCGHCFTQKGNLLRHIKL: the “log2 fold change of degron read counts” value is -0.88.

For the sequence FECSVCGHKFTQKGNLLRHIKL, the “log2 fold change of degron read counts” value is -0.908.

For FQCNQCGAHFTQKGNLLRHIKL, the “log2 fold change of degron read counts” value was -0.607.

Turning to FMCDVCGAMFTQKGNLLRHIKL, the “log2 fold change of degron read counts” value is -1.29.

Turning to FACPQCGAYFTQKGNLLRHIKL, the “log2 fold change of degron read counts” value was -0.605.

As for FKCPVCGAQFTQKGNLLRHIKL, the “log2 fold change of degron read counts” value was -0.681.

Regarding FVCEICGRAFTQKGNLLRHIKL, the “log2 fold change of degron read counts” value is -1.95.

As to FTCPICGRYFTQKGNLLRHIKL, the “log2 fold change of degron read counts” value came out at 0.0704.

As to LRCNQCGFFCTQKGNLLRHIKL, the “log2 fold change of degron read counts” value amounted to 1.87.

With FMCSVCGHWFTQKGNLLRHIKL, the “log2 fold change of degron read counts” value was found to be 0.911.

In the case of FVCDQCGAVFTQKGNLLRHIKL, the “log2 fold change of degron read counts” value is -2.91.

Regarding LTCEICGFMCTQKGNLLRHIKL, the “log2 fold change of degron read counts” value was -0.31.

Turning to FHCPICGHIFTQKGNLLRHIKL, the “log2 fold change of degron read counts” value worked out at 0.525.

In the case of FDCDQCGAAFTQKGNLLRHIKL, the “log2 fold change of degron read counts” value was -1.58.

With FECNQCGAYFTQKGNLLRHIKL, the “log2 fold change of degron read counts” value was -0.574.

Regarding FYCNVCGAYFTQKGNLLRHIKL, the “log2 fold change of degron read counts” value stood at 0.766.

As for FWCNICGACFTQKGNLLRHIKL, the “log2 fold change of degron read counts” value came to 0.785.

For the sequence FCCNQCGHFFTQKGNLLRHIKL, the “log2 fold change of degron read counts” value is 1.01.

Turning to FGCNQCGRMFTQKGNLLRHIKL, the “log2 fold change of degron read counts” value was found to be 0.727.

Regarding FACDICGATFTQKGNLLRHIKL, the “log2 fold change of degron read counts” value was -2.1.

As to FRCPICGREFTQKGNLLRHIKL, the “log2 fold change of degron read counts” value is -1.03.

As for FKCSVCGHLFTQKGNLLRHIKL, the “log2 fold change of degron read counts” value was -0.842.

Turning to FKCNVCGAEFTQKGNLLRHIKL, the “log2 fold change of degron read counts” value is -1.93.

As for FICNICGANFTQKGNLLRHIKL, the “log2 fold change of degron read counts” value is -0.744.

FVCEQCGATFTQKGNLLRHIKL: the “log2 fold change of degron read counts” value was -2.18.

As to FGCPICGHVFTQKGNLLRHIKL, the “log2 fold change of degron read counts” value worked out at 0.0242.
